Test results taken from the supplement of paper PMC9334596.
Where “and” joins values, the source holds several entries; their conditions need not be identical. Equal entries are not always repeated. In all, about 5,300 compounds were measured (“PER2::LUC luminescence relative to vehicle control”: median about 0.96, highest 2% from about 1.3 on). The list shows a part of the results.

Tested on: mPer2Luc MEF
Assay: PER2::LUC luminescence relative to vehicle control (fold of vehicle); higher = higher PER2::LUC reporter signal
Conditions: 10 µM
How it was run: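 The reported values are PER2::LUC luminescence as fold of vehicle control in mouse embryonic fibroblasts carrying the mPer2Luc reporter. Cells were seeded at ~3000 per well in 384-well plates in DMEM with 10% FBS at 37 °C and 5% CO2, and compounds were added at 10 μM 48 h later. ONE-Glo luminescence was read 24 h and 30 h after treatment.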

| Structure (SMILES) | PER2::LUC luminescence (time after treatment 24 h) | PER2::LUC luminescence (time after treatment 30 h) |
| --- | --- | --- |
| COc1ccc2cccc(CCNC(C)=O)c2c1 | 1.02 | 1.05 |
| C1=N/C2=N/c3ccc(OCCN4CCCC4)c(c3)COC/C=C/COCc3cccc(c3)C(=C1)N2 | 0.455 | 0.716 |
| N=C(N)NCCC[C@@H](NC(=O)[C@@H]1CCCN1C(=O)[C@@H]1CSSCCC(=O)N[C@@H](Cc2ccc(O)cc2)C(=O)N[C@@H](Cc2ccccc2)C(=O)N[C@@H](CCC(N)=O)C(=O)N[C@@H](CC(N)=O)C(=O)N1)C(=O)NCC(N)=O | 1.06 | 0.999 |
| CC1=C(C)C(=O)C(CCCCC#CCCCC#CCO)=C(C)C1=O | 0.959 | 1.07 |
| CN(C)C(=O)c1ccc(S(=O)(=O)c2ccc(NC(=O)[C@@](C)(O)C(F)(F)F)c(Cl)c2)cc1 | 0.296 | 0.568 |
| C#C[C@]1(O)CC[C@H]2[C@@H]3CCc4cc(OC)ccc4[C@H]3CC[C@@]21C | 0.993 | 1.18 |
| CC(C)NCC(O)c1ccc(NS(C)(=O)=O)cc1 (stereo unspecified) | 1.06 and 1.07 | 1.03 and 0.917 |
| CC(=O)N1CCN(c2ccc(OCC3COC(Cn4ccnc4)(c4ccc(Cl)cc4Cl)O3)cc2)CC1 (stereo unspecified) | 0.957 | 1.01 |
| CN(CCOc1ccc(NS(C)(=O)=O)cc1)CCc1ccc(NS(C)(=O)=O)cc1 | 0.978 | 0.961 |
| CNCC(O)c1ccc(O)c(O)c1 (racemic) | 1.21 | 1.2 |
| Cc1[nH]c(/C=C2\C(=O)Nc3ccccc32)c(C)c1CCC(=O)O | 1.01 | 1.2 |
| Cc1nc(C)c(Cl)c(O)c1Cl | 0.852 | 1.22 |
| CC(C(=O)O[C@]12CCC[C@H](CC1)N2C)c1ccc(Br)cc1 (stereo partly specified) | 0.821 | 0.934 |
| COc1ccc(/C=C/c2cc(OC)cc(=O)o2)cc1 | 1.06 | 1.22 |
| O=C(NO)C1(CS(=O)(=O)c2ccc(Oc3ccc(Cl)cc3)cc2)CCOCC1 | 1 | 0.895 |
| CCN(CC)CCCC(C)Nc1c2ccc(Cl)cc2nc2ccc(OC)cc12 (stereo unspecified) | 0.447 and 0.203 | 0.738 and 0.426 |
| O=C(O)P(=O)(O)O | 1.03 | 1.03 |
| CC(C)(C)NS(=O)(=O)c1cncc(-c2cc(F)c3nc(N)nn3c2)c1 | 1.02 | 1.08 |
| CCCCCCCCCCCCCCCC[N+](C)(C)CCN(Cc1ccc(OC)cc1)c1ncccn1 | 0.289 | 0.192 |
| C#CCN(Cc1cc2c(=O)[nH]c(C)nc2cc1Br)c1ccc(C(=O)NCc2cccnc2)cc1 | 0.902 | 0.731 |
| Cc1ccc2c(Nc3ccc(Cl)cc3)nccc2c1Nc1ncccc1-c1ncnc2nc[nH]c12 | 0.42 | 0.349 |
| CC(C)(C)c1ccc(S(=O)(=O)Nc2ccc(-n3ccnc3)cc2)cc1 | 1.15 | 1.26 |
| Cc1cc(-c2nc(-c3ccc(OC(F)(F)F)cc3)no2)nn1Cc1ccnc(N2CCN(C3CC3)CC2)c1 | 0.775 | 0.735 |
